Reference: paper PMC7749740
No constants are given. Whether binding was seen depends on the method and setting. In cells and extracts the contact can be indirect. Some results given as binding are weak or reduced against the parent protein; the word gives no strength. For some of these results: Sequences can lack the tags named with a protein. Blank lines part the entries; values can stand above or below the molecule they belong to.

Chains of the proteins cited; added tags and fusions are not shown. Lines headed by an entry give the natural chain unless they say otherwise; changes in a name come on top.
UniProt P08138: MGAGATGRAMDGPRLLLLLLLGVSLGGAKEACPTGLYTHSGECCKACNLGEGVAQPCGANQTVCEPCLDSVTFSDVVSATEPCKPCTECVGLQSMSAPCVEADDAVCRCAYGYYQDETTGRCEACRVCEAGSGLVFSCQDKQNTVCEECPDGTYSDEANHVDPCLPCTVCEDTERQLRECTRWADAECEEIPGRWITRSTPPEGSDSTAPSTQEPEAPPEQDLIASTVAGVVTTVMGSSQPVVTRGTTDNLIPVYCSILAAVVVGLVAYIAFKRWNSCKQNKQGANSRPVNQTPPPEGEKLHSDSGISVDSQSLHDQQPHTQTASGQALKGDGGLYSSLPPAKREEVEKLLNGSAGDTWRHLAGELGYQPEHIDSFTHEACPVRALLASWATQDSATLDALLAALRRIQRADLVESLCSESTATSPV
UniProt P11142: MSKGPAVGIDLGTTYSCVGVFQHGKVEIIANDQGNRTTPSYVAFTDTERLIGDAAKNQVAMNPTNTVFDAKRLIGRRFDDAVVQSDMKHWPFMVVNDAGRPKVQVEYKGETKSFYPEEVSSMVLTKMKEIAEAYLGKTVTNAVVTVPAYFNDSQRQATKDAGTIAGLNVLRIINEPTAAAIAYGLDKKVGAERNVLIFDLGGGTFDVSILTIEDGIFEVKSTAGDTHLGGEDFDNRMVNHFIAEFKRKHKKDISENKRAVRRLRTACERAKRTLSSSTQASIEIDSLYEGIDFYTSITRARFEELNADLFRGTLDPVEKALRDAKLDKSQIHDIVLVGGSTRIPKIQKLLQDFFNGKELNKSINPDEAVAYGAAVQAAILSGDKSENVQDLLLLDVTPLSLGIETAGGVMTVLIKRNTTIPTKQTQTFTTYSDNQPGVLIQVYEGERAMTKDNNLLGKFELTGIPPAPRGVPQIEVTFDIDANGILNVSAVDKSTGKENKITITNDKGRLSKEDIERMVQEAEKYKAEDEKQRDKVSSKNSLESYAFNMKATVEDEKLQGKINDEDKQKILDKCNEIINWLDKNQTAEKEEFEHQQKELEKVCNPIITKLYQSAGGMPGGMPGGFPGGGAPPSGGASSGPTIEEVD

What was measured:
[1] = target: T1, Flag-p73β (Flag-tagged TAp73β) (human) (UniProt O15350); test: co-IP; H1299 cells co-transfected with Flag-p73β (Flag-p73) and GFP-NGFR or its fragments; reciprocal IP and immunoblot; lysis buffer 50 mM Tris/HCl pH 7.5, 0.5% NP-40, 1 mM EDTA, 150 mM NaCl
T1 sequence: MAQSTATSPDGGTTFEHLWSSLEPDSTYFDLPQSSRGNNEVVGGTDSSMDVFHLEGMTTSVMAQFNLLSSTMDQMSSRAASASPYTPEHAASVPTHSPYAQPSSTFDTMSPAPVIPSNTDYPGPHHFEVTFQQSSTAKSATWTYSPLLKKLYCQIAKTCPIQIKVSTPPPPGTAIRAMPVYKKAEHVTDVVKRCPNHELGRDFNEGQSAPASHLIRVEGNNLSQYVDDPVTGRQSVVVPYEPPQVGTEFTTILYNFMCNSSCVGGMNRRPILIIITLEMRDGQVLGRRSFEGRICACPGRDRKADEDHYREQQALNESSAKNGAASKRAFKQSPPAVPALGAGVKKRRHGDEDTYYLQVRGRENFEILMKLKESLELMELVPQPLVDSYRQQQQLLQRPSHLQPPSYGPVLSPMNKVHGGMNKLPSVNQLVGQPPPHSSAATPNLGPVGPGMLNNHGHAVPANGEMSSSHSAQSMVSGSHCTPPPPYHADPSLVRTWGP

[2] = target: T1, Flag-p73β (Flag-tagged TAp73β) (human); test: co-IP; HCT116 p53-/- cells transfected with Flag-p73β alone or with GFP-NGFR for 30 h; cytoplasmic and nuclear fractions separated, then co-IP and immunoblot
[3] = target: T1, Flag-p73β (Flag-tagged TAp73β) (human); test: co-IP; MEF p53-/-;MDM2-/- cells transfected with Flag-p73β, GFP-NGFR or both; reciprocal co-IP and immunoblot
[4] = target: T2, GST-p73 full-length (WT) (human) (UniProt O15350); test: pull-down; 500 ng GST-p73 or fragments (or GST only) on glutathione-Sepharose 4B beads incubated with cell lysates overexpressing Myc-NGFR, 4°C, 4 h; washed with 50 mM Tris/HCl pH 8.0, 0.5% NP-40, 1 mM EDTA, 150 mM NaCl, 10% glycerol; immunoblot with anti-NGFR; only the target purified
T2 sequence: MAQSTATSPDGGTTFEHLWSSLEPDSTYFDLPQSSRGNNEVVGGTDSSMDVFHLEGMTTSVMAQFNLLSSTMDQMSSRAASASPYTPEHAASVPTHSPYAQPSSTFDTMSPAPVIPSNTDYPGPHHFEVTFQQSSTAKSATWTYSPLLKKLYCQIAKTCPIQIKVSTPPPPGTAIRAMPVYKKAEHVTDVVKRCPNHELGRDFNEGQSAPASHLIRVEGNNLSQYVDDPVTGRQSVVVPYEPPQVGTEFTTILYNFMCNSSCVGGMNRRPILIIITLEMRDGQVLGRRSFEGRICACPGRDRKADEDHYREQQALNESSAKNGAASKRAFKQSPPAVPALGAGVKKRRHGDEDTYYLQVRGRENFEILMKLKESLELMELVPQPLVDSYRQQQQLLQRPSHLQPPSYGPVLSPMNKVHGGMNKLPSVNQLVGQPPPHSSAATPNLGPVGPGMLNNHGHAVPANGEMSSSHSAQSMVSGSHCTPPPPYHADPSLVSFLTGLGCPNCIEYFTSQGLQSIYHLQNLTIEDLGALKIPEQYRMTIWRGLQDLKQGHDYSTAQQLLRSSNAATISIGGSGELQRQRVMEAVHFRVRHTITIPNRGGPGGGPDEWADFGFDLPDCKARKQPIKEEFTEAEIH

GST-p73 aa 1–70 (human) [5] = target: T3, GST-p73 aa 1–70 (human) (UniProt O15350); test: as above
T3 sequence: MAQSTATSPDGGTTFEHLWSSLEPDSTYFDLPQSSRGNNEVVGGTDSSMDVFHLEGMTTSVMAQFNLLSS

GST-p73 aa 1–270 (human) [6] = target: T4, GST-p73 aa 1–270 (human) (UniProt O15350); test: as above
T4 sequence: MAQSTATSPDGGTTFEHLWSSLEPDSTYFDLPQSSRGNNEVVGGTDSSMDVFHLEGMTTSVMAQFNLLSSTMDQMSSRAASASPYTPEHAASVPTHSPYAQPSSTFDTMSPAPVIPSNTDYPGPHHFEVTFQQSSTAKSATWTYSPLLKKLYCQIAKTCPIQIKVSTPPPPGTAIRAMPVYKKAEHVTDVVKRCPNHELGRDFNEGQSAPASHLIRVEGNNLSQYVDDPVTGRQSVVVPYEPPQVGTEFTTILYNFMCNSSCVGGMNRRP

[7] = target: T2, GST-p73 full-length (WT) (human); test: pull-down; GST-p73α or fragments on glutathione-Sepharose 4B beads incubated with cell lysates, 4°C, 4 h; immunoblot for HSPA8 and LAMP2A (Supplementary Figure S4); only the target purified
GST-p73 aa 1–70 (human) [8] = target: T3, GST-p73 aa 1–70 (human); test: as above
GST-p73 aa 1–270 (human) [9] = target: T4, GST-p73 aa 1–270 (human); test: as above
GFP-NGFR (human) [10] = target: GFP-NGFR (human) (UniProt P08138); test: co-IP; HCT116 p53-/- cells transfected with Flag-p73β (IP anti-Flag) or GFP-NGFR (IP anti-GFP); immunoblot for endogenous HSPA8 and LAMP2a
[11] = target: T1, Flag-p73β (Flag-tagged TAp73β) (human); test: as above
GFP-NGFR (human) [12] = target: GFP-NGFR (human) (UniProt P08138); test: co-IP; H1299 cells co-transfected with Flag-p73β (Flag-p73) and GFP-NGFR or its fragments; reciprocal IP and immunoblot; lysis buffer 50 mM Tris/HCl pH 7.5, 0.5% NP-40, 1 mM EDTA, 150 mM NaCl

Molecule: GFP-NGFR (from UniProt P08138 29-427) (receptor)
binding [1]: binds
binding [2]: binds
binding [3]: binds

Molecule: Myc-NGFR (from UniProt P08138 29-427) (receptor)
binding [4]: binds
binding (GST-p73 aa 1–70 (human) [5]): no binding
binding (GST-p73 aa 1–270 (human) [6]): binds

Molecule: heat shock 70 kDa protein 8 (HSPA8), endogenous (from UniProt P11142 1-646)
binding [7]: binds
binding (GST-p73 aa 1–70 (human) [8]): binds
binding (GST-p73 aa 1–270 (human) [9]): binds
binding (GFP-NGFR (human) [10]): binds
binding [11]: binds

Next, values leading:

binding [1]: binds
Molecule: GFP-NGFR-N (aa 1–272) (from UniProt P08138 29-272) (domain or fragment)

binding (GFP-NGFR (human) [12]): binds
B1: Flag-p73β (Flag-tagged TAp73β) (protein, UniProt O15350-2 1-499)
chain: MAQSTATSPDGGTTFEHLWSSLEPDSTYFDLPQSSRGNNEVVGGTDSSMDVFHLEGMTTSVMAQFNLLSSTMDQMSSRAASASPYTPEHAASVPTHSPYAQPSSTFDTMSPAPVIPSNTDYPGPHHFEVTFQQSSTAKSATWTYSPLLKKLYCQIAKTCPIQIKVSTPPPPGTAIRAMPVYKKAEHVTDVVKRCPNHELGRDFNEGQSAPASHLIRVEGNNLSQYVDDPVTGRQSVVVPYEPPQVGTEFTTILYNFMCNSSCVGGMNRRPILIIITLEMRDGQVLGRRSFEGRICACPGRDRKADEDHYREQQALNESSAKNGAASKRAFKQSPPAVPALGAGVKKRRHGDEDTYYLQVRGRENFEILMKLKESLELMELVPQPLVDSYRQQQQLLQRPSHLQPPSYGPVLSPMNKVHGGMNKLPSVNQLVGQPPPHSSAATPNLGPVGPGMLNNHGHAVPANGEMSSSHSAQSMVSGSHCTPPPPYHADPSLVRTWGP
